Measured values as given in PubChem BioAssay AID588342 (National Center for Advancing Translational Sciences (NCATS), 2011).
About 25,000 (6.9%) of roughly 360,000 compounds were called active. The shares of active, inactive and inconclusive entries below differ from those in the screen. Calls come from the whole dose curve; as a rule, active = well fitted inhibition curve with a large enough effect; inconclusive = small, poorly fitted or top-dose-only effect; inactive = flat fitted curve, though single readings scatter. A potency beside an inconclusive call is a rough fit, not a confirmed value.

Biological target: Luciferin 4-monooxygenase (Photinus pyralis) (UniProt P08659)
Experiment: qHTS profiling assay for firefly luciferase inhibitor/activator using purifed enzyme and Km concentrations of substrates (counterscreen for miR-21 project); note: nearly all actives have a fitted effect of over 55% in size;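 for activity change, negative = inhibition: plate controls were vehicle for no effect and reference inhibitor for full effect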
Conditions: purified FLuc, luminescence inhibition; activity change, negative = inhibition: at 57.5 µM (top of the series)
Summary of the method: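 Biochemical qHTS of compounds, final roughly 60 µM downward over six points, against 10 nM purified firefly luciferase using Km concentrations of substrates (10 uM D-luciferin, 10 uM ATP) in Tris acetate pH 7.5 buffer; luminescence output.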
Potency is the fitted concentration of half-maximal effect; tags give direction and shape of the fitted curve.

UniProt P08659, sequence (P08659 whole entry, looked up): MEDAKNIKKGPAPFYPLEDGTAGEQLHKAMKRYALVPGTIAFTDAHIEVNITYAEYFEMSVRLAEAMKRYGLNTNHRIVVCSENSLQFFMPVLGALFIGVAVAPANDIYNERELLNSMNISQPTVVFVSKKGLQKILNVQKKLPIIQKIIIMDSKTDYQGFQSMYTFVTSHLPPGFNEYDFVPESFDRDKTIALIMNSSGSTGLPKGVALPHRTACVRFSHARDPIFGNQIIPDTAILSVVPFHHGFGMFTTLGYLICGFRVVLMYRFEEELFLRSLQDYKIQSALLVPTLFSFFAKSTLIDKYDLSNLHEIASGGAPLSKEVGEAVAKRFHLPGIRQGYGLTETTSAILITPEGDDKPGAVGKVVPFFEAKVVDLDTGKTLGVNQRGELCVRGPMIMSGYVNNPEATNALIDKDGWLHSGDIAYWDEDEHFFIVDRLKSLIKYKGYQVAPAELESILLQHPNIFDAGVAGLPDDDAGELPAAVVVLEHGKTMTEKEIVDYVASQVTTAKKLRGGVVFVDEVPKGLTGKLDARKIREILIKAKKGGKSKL

Row | Compound | Potency | activity change, negative = inhibition
1 | O=C(O)c1ccc(NS(=O)(=O)c2ccc3c(c2)C(=O)c2ccccc2C3=O)cc1 | inconclusive: 37.9 µM [inhibitor, single point] | –
2 | CCCc1ccc2oc(C(=O)NCCc3cnn(C)c3)c(C)c2c1 | active: 13.5 µM | –
3 | CC(C)Cc1cc(C(=O)Nc2sc3c(c2C#N)CCC3)no1 | inconclusive: 23.9 µM [inhibitor, partial curve, poor fit] | –
4 | O=C(COC(=O)CC1CC2CCC1C2)Nc1c(F)cccc1F (stereo not given) | inconclusive: 33.8 µM [inhibitor, single point] | –
5 | O=C(COC(=O)c1c(F)cccc1F)Nc1ccc2c(c1)OCO2 | active: 6.75 µM | –
6 | CCOc1ccc(/C=C2\SC(=S)N(CC(=O)N(CCO)C(C)(C)C)C2=O)cc1 | active: 12 µM | –
7 | Cc1cc(-c2ccccc2)nc(SCc2ccc(C(=O)O)o2)n1 | inconclusive: 26.9 µM [inhibitor, single point] | –
8 | COc1ccc2nc(Nc3nc(C)c(CCC(C)C)c(=O)[nH]3)nc(C)c2c1 | – | inactive: -1.49%
9 | Cc1nn(-c2ccccc2)c2sc(-c3n[nH]c(=S)o3)cc12 | inconclusive: 37.9 µM [inhibitor, partial curve, poor fit] | –
10 | CCCn1nc(NS(=O)(=O)c2cccc3nonc23)c2cc3ccccc3nc21 | inconclusive: 23.9 µM [inhibitor, single point] | –
11 | Cc1ccccc1C(=O)N1CCN(c2ccc(NC(=O)c3ccc4c(c3)OCCO4)cc2)CC1 | inconclusive: 37.9 µM [inhibitor, partial curve, poor fit] | –
12 | CC(=O)Nc1ccc2nc(NC(=O)c3cccs3)sc2c1 | active: 2.13 µM | –
13 | Cc1cccc(N(C(=O)c2ccc(CN3CCOCC3)o2)C(C(=O)NC2CCCCC2)c2ccc(F)cc2)c1 (stereo not given) | – | inactive: 0.757%
14 | O=C(C1CCCCC1)N1CCN(c2nc(-c3ccc(F)cc3)cs2)CC1 | inconclusive: 21.3 µM [inhibitor, partial curve, poor fit] | –
15 | Cc1ccc(NC(=O)CN2C(=O)NC3(CCCCCC3)C2=O)cc1Cl | – | inactive: -10.3%
16 | Cc1c(NC(=O)c2cc3ccccc3oc2=O)c(=O)n(-c2ccccc2)n1C | inconclusive: 16.9 µM [inhibitor, partial curve] | –
17 | COc1ccc(-c2onc(C)c2-c2cnn(-c3ccccc3)c2)c(O)c1C | inconclusive: 26.9 µM [inhibitor, partial curve, poor fit] | –
18 | CCOC(=O)N1CCC(N2C(=O)c3ccc(C(=O)Nc4ccc(OC)cc4)cc3C2=O)CC1 | – | inactive: -1.09%
19 | Cc1ccccc1-c1nnc(SCC(=O)N(C)C2CCCCC2)o1 | inconclusive: 37.9 µM [inhibitor, partial curve, poor fit] | –
20 | O=C(CSc1ccc(-c2cccs2)nn1)c1cccs1 | inconclusive: 19 µM [inhibitor, partial curve] | –
21 | O=C(Nc1ccccc1F)C1COc2ccccc2O1 (stereo not given) | inconclusive: 26.9 µM [inhibitor, single point] | –
22 | O=C(OCC(=O)N1CCc2ccccc21)c1ccccc1 | active: 9.53 µM | –
23 | O=C(Oc1ccc(OC(=O)N2CCOCC2)cc1)c1ccccc1 | inconclusive: 10.7 µM [inhibitor, partial curve, poor fit] | –

Row | Compound | Potency | activity change, negative = inhibition
24 | Cc1ccc(NC(=O)c2ccccc2Cl)c(Cl)c1 | active: 19 µM | –
25 | COc1ccc(-c2noc(-c3ccccc3C(=O)Nc3cccc(OC)c3)n2)cc1 | active: 10.7 µM | –
26 | O=C(NN1C(=O)C2CC=C(Cl)CC2C1=O)c1ccncc1 (stereo not given) | – | inactive: -1.34%
27 | CCOc1ccc(OCCC(=O)OCC(=O)Nc2ccc3c(c2)OCO3)cc1 | active: 23.9 µM | –
28 | CN(Cc1cccs1)C(=O)CSc1nc2ccccc2[nH]1 | inconclusive: 21.3 µM [inhibitor, single point] | –
29 | CN(c1ccc(C(=O)Nc2ccccn2)cc1)S(=O)(=O)c1ccccc1 | inconclusive: 26.9 µM [inhibitor, single point] | –
30 | CCCn1nc(NS(=O)(=O)c2cccc3nonc23)c2cc3cccc(C)c3nc21 | inconclusive: 37.9 µM [inhibitor, partial curve, poor fit] | –
31 | C/C(=N\NC(=O)CN(c1ccccc1)S(=O)(=O)c1ccccc1[N+](=O)[O-])C(C)(C)C | – | inactive: -1.72%
32 | COc1ccc(-c2c3c(=O)n(C)c(=O)n(C)c3cn2Cc2cccnc2)cc1 | inconclusive: 21.3 µM [inhibitor, partial curve, poor fit] | –
33 | Clc1ccc(-n2nnc(-c3nccs3)n2)cc1Cl | active: 1.9 µM | –
34 | Cn1c(N)c(C(=O)COC(=O)CCCOc2ccc(Cl)cc2Cl)c(=O)n(C)c1=O | inconclusive: 26.9 µM [inhibitor, single point] | –
35 | Cn1c(=O)c2c(nc(N/N=C/c3ccc(OC(=O)c4ccco4)cc3)n2Cc2ccccc2)n(C)c1=O | – | inactive: -0.415%
36 | C/C(=N\Nc1ccc(Cl)c(C(=O)O)c1)c1ccc(Br)s1 | inconclusive: 30.1 µM [inhibitor, single point] | –
37 | O=C(O)c1cccnc1SCC(=O)N1CCCc2ccccc21 | inconclusive: 21.3 µM [inhibitor, partial curve] | –
38 | CC1CCN(C(=O)c2cc3c(=O)n4ccccc4nc3s2)CC1 | inconclusive: 26.9 µM [inhibitor, single point] | –
39 | CCC(C)NC(=O)Cn1nc(Cc2ccncc2)c2ccccc2c1=O (stereo not given) | – | inactive: 0.303%
40 | COc1cccc(NC(=O)CSc2nc(=O)n(Cc3ccncc3)c3c2CCC3)c1 | – | inactive: 0.488%
41 | CCOC(=O)/C(C#N)=C1\SS/C(=C(/C#N)C(=O)OCC)S1 | inconclusive: 16.9 µM [inhibitor, partial curve] | –
42 | O=C(O)CCCCCN1C(=O)/C(=C\c2ccc(-c3ccc(Cl)cc3)o2)SC1=S | inconclusive: 26.9 µM [inhibitor, partial curve, poor fit] | –
43 | Cc1ccc(C(=O)CCC(=O)OCC(=O)N(C)c2c(N)n(Cc3ccccc3)c(=O)[nH]c2=O)cc1 | inconclusive: 37.9 µM [inhibitor, partial curve, poor fit] | –
44 | Cc1ccc2oc(NC(=O)N3CCOCC3)cc(=O)c2c1 | – | inactive: -4.54%
45 | Cc1cccc(Cc2cnc(N3C(=N)SC(C)C3=O)s2)c1 (stereo not given) | inconclusive: 19 µM [inhibitor, partial curve] | –
